The test system of one test is HSkMC. Briefly: cytotoxicity call (relative viability < 0.9). Conditions: 10 µM.
The subject of the next test is HepG2. Briefly: cytotoxicity call (relative viability < 0.9). The conditions noted are these: 10 µM.
The next test deals with S. aureus RN4220. Description: growth inhibition call (relative growth <= 0.2). The conditions noted are these: 50 µM.

The other results are listed elsewhere or left out.

In the case of `COc1ccc(NC(=O)N(C)C[C@@H]2OCCCC[C@@H](C)Oc3ccc(NC(=O)Cc4ccccc4)cc3C(=O)N([C@H](C)CO)C[C@H]2C)cc1`, the cytotoxicity call in the test on HSkMC and in the test with HepG2 was “inactive” each time. Further, in the test on S. aureus RN4220, the growth inhibition call is “inactive”.

Take `COc1ccc(NC(=O)Nc2ccc3c(c2)C(=O)N([C@@H](C)CO)C[C@@H](C)[C@@H](CN(C)S(=O)(=O)c2cccs2)OCCCC[C@H](C)O3)cc1`: the cytotoxicity call in the test with HSkMC and in the test on HepG2 was “inactive” each time. Also, in the test with S. aureus RN4220, the growth inhibition call was “inactive”.

Turning to `C[C@H]1CCCCO[C@H](CN(C)C(=O)C2CCCCC2)[C@@H](C)CN([C@@H](C)CO)C(=O)c2cc(NC(=O)c3ccccc3)ccc2O1`, the cytotoxicity call with HSkMC and in the test on HepG2 was “inactive” each time. Besides, the growth inhibition call in the test on S. aureus RN4220 was “inactive”.

`C[C@@H]1CN([C@H](C)CO)C(=O)c2cc(-c3cccc(C#N)c3)cnc2O[C@@H]1CN(C)C(=O)c1cnccn1`: the cytotoxicity call in the test on HSkMC and in the test with HepG2 was “inactive” throughout. Besides, in the test on S. aureus RN4220, the growth inhibition call is “inactive”.

On to `CC(C)NC(=O)Nc1ccc2c(c1)C(=O)N([C@@H](C)CO)C[C@@H](C)[C@@H](CN(C)C(=O)Nc1ccc(F)cc1)OCCCC[C@@H](C)O2`, for which the cytotoxicity call in the test on HSkMC and in the test on HepG2 was “inactive” each time. Further, in the test on S. aureus RN4220, the growth inhibition call was “inactive”.

On to `Cc1cc(C(=O)Nc2cccc3c2O[C@@H](CN(C)C(=O)Nc2ccc4c(c2)OCO4)[C@@H](C)CN([C@@H](C)CO)C3=O)n(C)n1`, for which the cytotoxicity call in the test on HSkMC is “inactive”. Further, the cytotoxicity call with HepG2 is “active”. In the test with S. aureus RN4220, the growth inhibition call is “inactive”.

`C[C@@H]1CN([C@H](C)CO)C(=O)Cc2cc(NS(=O)(=O)c3cccs3)ccc2O[C@@H]1CN(C)Cc1ccc(Oc2ccccc2)cc1`: the cytotoxicity call in the test on HSkMC and in the test with HepG2 was “active” in each case. In addition, in the test on S. aureus RN4220, the growth inhibition call was “inactive”.

With `CN1C(=O)[C@@H]2CN(c3ncccn3)C[C@@H]2C12CCN(S(C)(=O)=O)CC2`, the cytotoxicity call in the test with HSkMC and in the test on HepG2 was “inactive” in each case. Moreover, the growth inhibition call in the test on S. aureus RN4220 is “inactive”.

As for `CO[C@@H]1CN(C)C(=O)c2cc(NS(=O)(=O)CC(F)(F)F)ccc2OC[C@@H](C)N(C(=O)c2ccc3c(c2)OCO3)C[C@H]1C`, the cytotoxicity call in the test with HSkMC and in the test with HepG2 was “inactive” in each case. In addition, in the test on S. aureus RN4220, the growth inhibition call is “inactive”.

On to `C[C@@H]1CN([C@H](C)CO)C(=O)c2cccc(NC(=O)NC3CCCCC3)c2O[C@@H]1CN(C)C(=O)Nc1ccc(C(F)(F)F)cc1`, for which the cytotoxicity call in the test with HSkMC and in the test on HepG2 was “inactive” throughout. Also, in the test with S. aureus RN4220, the growth inhibition call is “inactive”.

As for `C[C@H](CO)N1C[C@H](C)[C@@H](CN(C)S(=O)(=O)c2cccs2)OCCCC[C@H](C)Oc2ccc(NC(=O)Nc3cccc4ccccc34)cc2C1=O`, the cytotoxicity call in the test with HSkMC and with HepG2 was “inactive” in each case. The growth inhibition call with S. aureus RN4220 is “inactive”.

For `C[C@H](CO)N1C[C@H](C)[C@@H](CN(C)C(=O)Nc2ccc3c(c2)OCO3)Oc2ccc(NS(C)(=O)=O)cc2CC1=O`, the cytotoxicity call with HSkMC and with HepG2 was “inactive” throughout. The growth inhibition call with S. aureus RN4220 is “inactive”.

For `COc1ccc([Si](C)(C)[C@@H]2[C@@H](CC(=O)N(CCO)Cc3ccccc3)O[C@]3(C(=O)N(Cc4cccc(N5CCCCC5=O)c4)c4ccccc43)[C@H]2C)cc1`, the cytotoxicity call in the test with HSkMC and in the test on HepG2 was “inactive” each time. Besides, the growth inhibition call in the test with S. aureus RN4220 was “inactive”.

`C[C@H]1CN([C@@H](C)CO)C(=O)c2cccc(NC(=O)c3ccc(-c4nccs4)cc3)c2O[C@H]1CN(C)Cc1ccccc1`: the cytotoxicity call in the test with HSkMC and in the test with HepG2 was “inactive” in each case. Besides, in the test with S. aureus RN4220, the growth inhibition call was “inactive”.

For the compound `COc1ccccc1-c1cnc2c(c1)C(=O)N([C@H](C)CO)C[C@H](C)[C@@H](CN(C)C(=O)c1cccnc1)O2`, the cytotoxicity call in the test on HSkMC and in the test with HepG2 was “inactive” throughout. The growth inhibition call with S. aureus RN4220 is “inactive”.

As for `Cc1ccc(S(=O)(=O)N(C)C[C@@H]2Oc3c(NC(=O)Nc4cccc5ccccc45)cccc3C(=O)N([C@H](C)CO)C[C@@H]2C)cc1`, the cytotoxicity call with HSkMC and in the test with HepG2 was “inactive” throughout. Also, in the test on S. aureus RN4220, the growth inhibition call is “inactive”.

With `C[C@H](CO)N1C[C@H](C)[C@H](CN(C)Cc2ccc3c(c2)OCO3)OCCCC[C@H](C)Oc2ccc(NC(=O)CCC(F)(F)F)cc2C1=O`, the cytotoxicity call with HSkMC and in the test on HepG2 was “inactive” throughout. In addition, in the test with S. aureus RN4220, the growth inhibition call is “inactive”.

With `C=CCC[C@@H](Cc1ccc(F)cc1)C(=O)OC[C@H](Cc1c[nH]c2ccccc12)NC(=O)[C@H](CC=C)CC(=O)N(CCO)Cc1ccccc1`, the cytotoxicity call in the test with HSkMC and with HepG2 was “inactive” throughout. Also, the growth inhibition call in the test with S. aureus RN4220 is “inactive”.

For the compound `C[C@@H]1CN([C@@H](C)CO)C(=O)c2cc(NC(=O)CCN3CCOCC3)ccc2O[C@H]1CN(C)S(=O)(=O)c1cn(C)cn1`, the cytotoxicity call with HSkMC and in the test with HepG2 was “inactive” throughout. Also, in the test with S. aureus RN4220, the growth inhibition call is “inactive”.

In the case of `COc1ccc(S(=O)(=O)Nc2ccc3c(c2)CC(=O)N([C@H](C)CO)C[C@H](C)[C@H](CN(C)Cc2ccncc2)O3)cc1`, the cytotoxicity call in the test on HSkMC and with HepG2 was “inactive” throughout. In addition, the growth inhibition call with S. aureus RN4220 is “inactive”.

For the compound `O=C(O)[C@H]1CCS(=O)(=O)C1`, the cytotoxicity call with HSkMC and in the test with HepG2 was “inactive” throughout. For the same compound, the growth inhibition call in the test on S. aureus RN4220 is “inactive”.

Consider `Cc1ccc(S(=O)(=O)N(C)C[C@H]2OCCCC[C@H](C)Oc3ccc(NC(=O)c4ccccc4)cc3C(=O)N([C@H](C)CO)C[C@H]2C)cc1`, for which the cytotoxicity call with HSkMC and in the test with HepG2 was “inactive” throughout. Also, the growth inhibition call with S. aureus RN4220 is “inactive”.

For the compound `NC(=O)CC[C@H]1CCCNC1`, the cytotoxicity call with HSkMC and in the test with HepG2 was “inactive” throughout. Moreover, the growth inhibition call with S. aureus RN4220 was “inactive”.

Turning to `COc1ccc(S(=O)(=O)N(C)C[C@@H]2Oc3ccc(NS(C)(=O)=O)cc3C(=O)N([C@@H](C)CO)C[C@H]2C)cc1`, the cytotoxicity call in the test with HSkMC and in the test on HepG2 was “inactive” throughout. Also, in the test with S. aureus RN4220, the growth inhibition call is “inactive”.

Turning to `Cc1ccc(S(=O)(=O)N(C)C[C@@H]2OCCCC[C@H](C)Oc3ccc(NC(=O)CCC(F)(F)F)cc3C(=O)N([C@@H](C)CO)C[C@H]2C)cc1`, the cytotoxicity call in the test with HSkMC and in the test on HepG2 was “inactive” in each case. In addition, in the test with S. aureus RN4220, the growth inhibition call is “inactive”.

Take `C[C@@H]1CN([C@H](C)CO)C(=O)c2cc(-c3cccc(C(=O)N(C)C)c3)cnc2O[C@H]1CN(C)C(=O)Cc1ccccn1`: the cytotoxicity call in the test on HSkMC (human skeletal muscle cells) and with HepG2 was “inactive” in each case. The growth inhibition call with S. aureus RN4220 is “inactive”.

In the case of `C[C@H]1CN([C@@H](C)CO)S(=O)(=O)c2ccc(-c3ccc(F)cc3)cc2O[C@@H]1CN(C)C(=O)C1CCOCC1`, the cytotoxicity call in the test with HSkMC and in the test on HepG2 was “inactive” throughout. The growth inhibition call with S. aureus RN4220 was “inactive”.

Values taken from the antibiotic and cytotoxicity screens of Wong et al. (2023).
